Reference: the supplement of paper PMC4166925
± gives the standard deviation of the averaged measurements. In all, about 33,000 sequences were measured (“E-score (dimensionless, -0.5 to 0.5)”: median about -0.046, highest 2% from about 0.36 on). The list shows a part of the results.

These sequences were tested on T1, SpTbr T-box DNA-binding domain (GST fusion) (assay: PBM E-score of 8-mer (E-score (dimensionless, -0.5 to 0.5)); Tbr is Tbrain of the sea star Patiria miniata (Pm) or the sea urchin Strongylocentrotus purpuratus (Sp); higher = stronger binding preference; most listed sequences are background and not binding sites). Details: the construct has about 5 more residues each side.
T1 sequence: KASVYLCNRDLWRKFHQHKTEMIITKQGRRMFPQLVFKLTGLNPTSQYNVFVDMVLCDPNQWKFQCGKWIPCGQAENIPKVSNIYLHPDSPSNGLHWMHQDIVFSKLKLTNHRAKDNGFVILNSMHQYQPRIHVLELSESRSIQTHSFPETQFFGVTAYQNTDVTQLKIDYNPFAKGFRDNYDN
Procedure, shortened: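 Each ungapped 8-mer received an enrichment E-score from the Universal PBM Analysis Suite, averaged over duplicate arrays. The proteins were Tbr T-box DNA-binding domains, covering the whole T-box plus about five flanking residues, fused to GST and expressed in BL21 E. coli at 20 °C before glutathione affinity purification. Universal Agilent oligonucleotide arrays were made double-stranded by primer extension and incubated with 200 nM protein in PBS (pH 7.5). The arrays were then scanned and quantified, and every 8-mer was scored from probe intensities.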

Sequence | PBM E-score of 8-mer
CGGGCTAA | -0.275 ± 0.0053
TAGACACA | 0.0942 ± 0.012
AGTTGTCA | 0.393 ± 0.016
TCTATCCA | -0.391 ± 0.02
ACTTATCA | 0.211 ± 0.039
ATAAGGGG | -0.0638 ± 0.01
TAATGCCA | -0.0895 ± 0.08
GCCTCAAC | -0.0908 ± 0.025
ACTTCCTG | -0.0587 ± 0.04
GAATCAAA | -0.134 ± 0.042
ATACTTAC | -0.183 ± 0.0065
CGATGCAG | -0.164 ± 0.022
AAGAAGAA | -0.203 ± 0.11
GCGATATA | 0.133 ± 0.058
ATGTCGCA | 0.231 ± 0.039
CAGAGGGA | -0.262 ± 0.021
CGGAACAC | -0.0489 ± 0.019
AGTCGTTG | 0.136 ± 0.0015
ATACGCGC | 0.179 ± 0.021
CCTACCGC | 0.0182 ± 0.06
AGGTGTTC | 0.3819 ± 0.00093
CAGGGGGG | -0.259 ± 0.0051

Sequence | PBM E-score of 8-mer
AGCTATTG | -0.0351 ± 0.028
GATAGAGC | -0.0174 ± 0.034
AAAGTTCA | -0.0472 ± 0.047
ACTTTACG | 0.136 ± 0.0094
TGCCAAAA | 0.129 ± 0.026
CGTGGGAA | 0.231 ± 0.0057
GTATTAAC | 0.0557 ± 0.023
ACCTTGCT | 0.152 ± 0.0089
ATATGGAT | -0.138 ± 0.0045
TAGCGGAA | -0.051 ± 0.035
ATCCACTG | -0.196 ± 0.035
ACAGCTAG | 0.244 ± 0.012
CGGCACGC | 0.187 ± 0.049
GGGGATCA | -0.3299 ± 0.0015
CAAAGCAC | -0.00738 ± 0.091
CTGTCTTC | -0.0509 ± 0.029
ACTTCGGG | -0.00805 ± 0.072
AAAGTCCC | -0.0306 ± 0.019
ACACAGGG | 0.133 ± 0.061
GGGCTTGA | -0.094 ± 0.04
CCAATTGC | -0.15 ± 0.013
TGCTGTAA | -0.197 ± 0.039

Sequence | PBM E-score of 8-mer
AACCTGAA | -0.226 ± 0.048
CATGGCAA | -0.12 ± 0.052
GCCGAACA | 0.00409 ± 0.032
TTCAACAA | -0.165 ± 0.064
CCAACTAG | -0.176 ± 0.072
AAATTATT | -0.125 ± 0.041
CCCGAATA | -0.0738 ± 0.0011
AAGTAGAC | -0.137 ± 0.074
CATAGTGG | -0.0585 ± 0.064
AGAAGCAG | -0.161 ± 0.025
CTCTGGTA | -0.125 ± 0.065
AGCCGTGG | -0.249 ± 0.047
ACAAGGTG | 0.425 ± 0.0045
GACGAGGA | -0.0609 ± 0.011
TATCGCGA | 0.26495 ± 0.00011
ACCAACTG | 0.0105 ± 0.0016
AGATCGTC | -0.00255 ± 0.09
AGGCCGAA | -0.314 ± 0.04
GACATTAC | -0.0534 ± 0.08
GGCGATAA | 0.202 ± 0.02
CACATCCC | 0.273 ± 0.012
ATGATGAA | -0.154 ± 0.044

Sequence | PBM E-score of 8-mer
ATTTAGCC | -0.168 ± 0.033
CCATTTAC | 0.0148 ± 0.018
AAAGAGGT | 0.031 ± 0.086
ACCACTAT | 0.0787 ± 0.041
AAGGGATT | -0.186 ± 0.0062
ACTGAGGA | -0.0611 ± 0.02
ACCCAGCG | 0.0629 ± 0.022
AGCAGATA | -0.195 ± 0.043
CTTGCATA | -0.25065 ± 2.1e-05
ATTTTGAA | -0.17 ± 0.068
GACTCAAC | 0.0525 ± 0.05
ATTTACGG | -0.182 ± 0.046
GATACAAC | 0.165 ± 0.033
TGCATGAA | -0.0638 ± 0.0073
CCACTAAC | 0.243 ± 0.07
CACCGTCG | 0.146 ± 0.033
TATCAATA | -0.154 ± 0.08
AACCACAC | 0.301 ± 0.038
ATTGGAAA | -0.318 ± 0.042
AGTAAAAT | -0.276 ± 0.0066
